From PMC7819943, “Rice protein-binding microarrays: a tool to detect cis-acting elements near promoter regions in rice” come the findings set out here.

The list shows a part of the results.

The target of this test is T1, OsWOX13 (Oryza sativa, UniProt Q5QMM3 1-267).
T1 sequence: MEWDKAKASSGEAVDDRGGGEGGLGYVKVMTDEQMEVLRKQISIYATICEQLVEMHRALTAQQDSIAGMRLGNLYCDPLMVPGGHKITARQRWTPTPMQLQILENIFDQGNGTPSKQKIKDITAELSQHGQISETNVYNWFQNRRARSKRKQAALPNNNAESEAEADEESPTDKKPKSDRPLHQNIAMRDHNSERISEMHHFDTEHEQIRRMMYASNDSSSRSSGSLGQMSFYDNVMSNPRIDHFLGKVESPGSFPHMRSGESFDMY
Kind of test: protein-binding microarray (RPBM); PBS, 2% BSA, 51.3 ng/ul salmon testes DNA, 50 uM zinc acetate, 200 nM TF, 25 C, 1 h; high values mean tight binding. To be noted: protein: recombinant; tags: N-terminal polyhistidine and DsRed monomer fusion (pET32a); label: CyDye5-dUTP incorporated in the synthesized complementary strand; 3' TTTTT single-stranded linker to array surface; dsDNA, one strand shown. The procedure, abridged: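 Polyhistidine-tagged DsRed fusions of transcription factors, joined at the N-terminus, were expressed in E. coli BL21-CodonPlus and isolated on Ni–NTA. They were incubated at 200 nM for 1 h at 25 °C on a custom Agilent array, double-stranded and BSA-blocked, in PBS with 2% BSA, salmon testes DNA and 50 µM zinc acetate. The binding signal is per-feature fluorescence intensity (arbitrary units) read on an Axon 4000B scanner after washing.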
Turning to “CGACCATGATTGACGCCTTCAAGGGTGCGAAACCGTCCTGCGGAGTCACCTAGTGCAG”, the binding signal is 50800 fluorescence intensity (a.u.).
In the case of “ATTGATTTTAGTGCTTATATAAGTTTATATTGTTTAGCTACGGAGTCACCTAGTGCAG”, the binding signal is 13300 fluorescence intensity (a.u.).
Take “GTTGTTGATGTGATTGTGTGTATTCAAGTAGAGATTGGGTCGGAGTCACCTAGTGCAG”: the binding signal was 24300 fluorescence intensity (a.u.).
As to “CTAAATATTATATCATCAATCTCCGCCGACTCCCTCGAATCGGAGTCACCTAGTGCAG”, the binding signal is 6230 fluorescence intensity (a.u.).
With “GTCAAATTAAACTGCAATCCGCGCTAAGATGGGGAGTAACCGGAGTCACCTAGTGCAG”, the binding signal is 14100 fluorescence intensity (a.u.).
On to “CCATTCACAAATTGGCAAGATTTTCCACTAAGAAATGCACCGGAGTCACCTAGTGCAG”, for which the binding signal was 16300 fluorescence intensity (a.u.).
Regarding “TAATAATTATAAGCTGAATCAAACAGGGTCTTAGTTTTGGCGGAGTCACCTAGTGCAG”, the binding signal is 21100 fluorescence intensity (a.u.).
For “GAACAAATTGGAATTCGCTGGTTAGTCAAATACTGCACATCGGAGTCACCTAGTGCAG” the value was 12100 fluorescence intensity (a.u.).
As for “GTGTGATGATTAGATATATTTGCATGTTGATTTGTTGAATCGGAGTCACCTAGTGCAG”, the binding signal was 49500 fluorescence intensity (a.u.).
For “GCACTAATTGGATAGATCCATCCATCACGATCGAGCTCACCGGAGTCACCTAGTGCAG” the value was 46900 fluorescence intensity (a.u.).
For “ATAATATGATAGAGGGAGTACCAATGTTTCGTTTTGGGTCCGGAGTCACCTAGTGCAG” the value was 3400 fluorescence intensity (a.u.); for “GCCAATAATTTCTTGACGACAACGACATACTACCTCCATTCGGAGTCACCTAGTGCAG”, 15200 fluorescence intensity (a.u.).
For “AAATAATTTCAACATTAGGCTACGATCAGTTGAGCCACTGCGGAGTCACCTAGTGCAG” the value was 3980 fluorescence intensity (a.u.); for “CTGTTTGATTTAGCTTAGGATTATTAGGTGTAAGCTGAAACGGAGTCACCTAGTGCAG”, 3910 fluorescence intensity (a.u.); for “TTTCTTGTTGATTGCAGGATCAAATCAACTGGCACGCTCACGGAGTCACCTAGTGCAG”, 19100 fluorescence intensity (a.u.).
As for “TCTAATTTTAACGTGGAACTATATGATACGTTGAATTTTACGGAGTCACCTAGTGCAG”, the binding signal is 5360 fluorescence intensity (a.u.).
For “AAACAAATTAACAGTATATTTTGAAATTTATTTCGAATACCGGAGTCACCTAGTGCAG” the value was 16800 fluorescence intensity (a.u.); for “TATGAGCGTGAACTGATTGGACTTGTCCAAGCAGTTCGCCCGGAGTCACCTAGTGCAG”, 5720 fluorescence intensity (a.u.).
For “AGGACCATCATAATCGTAATCATCACACCAACAACATCGCCGGAGTCACCTAGTGCAG” the value was 3150 fluorescence intensity (a.u.); for “GTTCTTCCTCTCTGATTGCTCAACGACAAGTGGTCAACACCGGAGTCACCTAGTGCAG”, 3790 fluorescence intensity (a.u.).
Take “TGCATATATATTCTAATTAGCGCACATGCACACACACCTTCGGAGTCACCTAGTGCAG”: the binding signal was 4760 fluorescence intensity (a.u.).
Turning to “AGCTTAATGTGATGTATGTTGTGCAGTAGAACAAAGTTCCCGGAGTCACCTAGTGCAG”, the binding signal is 3830 fluorescence intensity (a.u.).
For “TAAGCTCATTGTTCATGTGACGTATACGAACATCTCAGTACGGAGTCACCTAGTGCAG” the value was 3670 fluorescence intensity (a.u.); for “TAATCTAGATTATTGAGCCAGATTACTATAGCTAGATTATCGGAGTCACCTAGTGCAG”, 3750 fluorescence intensity (a.u.).
For “GATCTAATCGATGACACCAATCATGATACTCCCTACATAACGGAGTCACCTAGTGCAG” the value was 8120 fluorescence intensity (a.u.); for “ATTCGTAACCACTTAATTACCCATTTATCCCCTTCTGATTCGGAGTCACCTAGTGCAG”, 10600 fluorescence intensity (a.u.); for “ATGGATTAATTAGGCTCAATAGATTCGTCTCGTGAATTAGCGGAGTCACCTAGTGCAG”, 29300 fluorescence intensity (a.u.).
For “GGCCATGTTAATTTTGCTCTACAATTTCTAACGAATTTAGCGGAGTCACCTAGTGCAG”, the binding signal was 3990 fluorescence intensity (a.u.).
Regarding “ATCTGATTATCCCCAAAATTGAAAGCACGCTCCATCTGCTCGGAGTCACCTAGTGCAG”, the binding signal was 48600 fluorescence intensity (a.u.).
With “TTTTCCAGAATTAATTTTGTAAATATATGGAAAATTATGTCGGAGTCACCTAGTGCAG”, the binding signal is 3400 fluorescence intensity (a.u.).
For “GTAAATTTATTAATTATTTTACAATATAGCATTTGGCTAACGGAGTCACCTAGTGCAG” the value was 45300 fluorescence intensity (a.u.); for “GTTAACTCGCTAATGACCTTATTATACTCCTGTTTCATCCCGGAGTCACCTAGTGCAG”, 3450 fluorescence intensity (a.u.); for “CTACCGTCCTGCAGCTGATTAAATCCTGATTCCGATTGCTCGGAGTCACCTAGTGCAG”, 4180 fluorescence intensity (a.u.).
For “ATTTGATTTTGAGATAGATACCTCAAGAACACGAAGAACACGGAGTCACCTAGTGCAG” the value was 7020 fluorescence intensity (a.u.); for “TGGATTTATACTTGATTTGGTGCGTAGTATCAGGGGTATTCGGAGTCACCTAGTGCAG”, 6760 fluorescence intensity (a.u.).
For “AGGAACAGTAAACATAGATTGATCCAAATCTTTCATCAGTCGGAGTCACCTAGTGCAG” the value was 18500 fluorescence intensity (a.u.); for “ATCGCAAATTTGGCTTCCTTTTCACCTTTCCTCGCTTCAACGGAGTCACCTAGTGCAG”, 7180 fluorescence intensity (a.u.).
For “CTAAATTTAGAATTTTCAATCTTAAATTTAAAGATGATTTCGGAGTCACCTAGTGCAG”, the binding signal is 14600 fluorescence intensity (a.u.).
For “GTATAATTATTGTCTACGATGTCTACTTCAACATTAAGTACGGAGTCACCTAGTGCAG” the value was 21700 fluorescence intensity (a.u.).
With “CATTGTATGTTTATAGGTAATTATTGTATGAATTGGCTACCGGAGTCACCTAGTGCAG”, the binding signal is 4760 fluorescence intensity (a.u.).
For “TCGTTAATACAAATTTCTGTTTAAAATTTCACATCTATTCCGGAGTCACCTAGTGCAG” the value was 4400 fluorescence intensity (a.u.); for “GTTAGACAGTTCACTTATTGTTGGTAGCTAGTGATCTGGACGGAGTCACCTAGTGCAG”, 4590 fluorescence intensity (a.u.).
For the sequence “ACCTGCAAATTATTTCCAATCATTCGAGTCATTCGCTAAACGGAGTCACCTAGTGCAG”, the binding signal is 31200 fluorescence intensity (a.u.).
For “GAAATCATTGACTGTCTTCTTTACCTGTTCTTTGGCAGAACGGAGTCACCTAGTGCAG” the value was 15400 fluorescence intensity (a.u.).
For “AGCTTGTTAAATCAATTAATAAGCATTTGTTTAGTCTAAGCGGAGTCACCTAGTGCAG” the value was 8810 fluorescence intensity (a.u.); for “TAGCATTAAATTGAAGTATGGAATAGTGGTGTTTGTATTGCGGAGTCACCTAGTGCAG”, 14200 fluorescence intensity (a.u.); for “GGTATGATTTGCGCACTCATTCTGCAGATGGGGAAGAACTCGGAGTCACCTAGTGCAG”, 21800 fluorescence intensity (a.u.).
For “CGTTTGAGCTATGATTGATGCATGAGTTGCAAGGATGCAACGGAGTCACCTAGTGCAG” the value was 23700 fluorescence intensity (a.u.); for “TCTCATCAATTGAATGGATATTATATTTTAATGTGTTCAGCGGAGTCACCTAGTGCAG”, 8660 fluorescence intensity (a.u.).
Turning to “ATTAAACTGCCATTAGCACATGTAGGTTACTGTAACACTTCGGAGTCACCTAGTGCAG”, the binding signal was 12800 fluorescence intensity (a.u.).
Take “TTGATTTTATTTACCGGATTATTGAAACAGATTATTTGTTCGGAGTCACCTAGTGCAG”: the binding signal is 9450 fluorescence intensity (a.u.).
For “ATGATAATACCTTCTATCAACGGAGTACTAATTTCAGTAACGGAGTCACCTAGTGCAG” the value was 5130 fluorescence intensity (a.u.); for “TCTAATTGAGTGTCTACATATGCAGAGTTAATGCTTCTGGCGGAGTCACCTAGTGCAG”, 30300 fluorescence intensity (a.u.).
With “ACAATAAATGTGAATAATTGTAGCAGCAGCACGAACGTAGCGGAGTCACCTAGTGCAG”, the binding signal is 5950 fluorescence intensity (a.u.).
